In PubChem BioAssay AID1963576 (National Center for Advancing Translational Sciences (NCATS), 2024):
Screen size: about 46,000 compounds; about 60 (0.1%) were called active. Inconclusive results (about 3%) are left out. The call rests on the fitted dose curve; in most records, active means well fitted inhibition curve with a large enough effect; inconclusive means small, poorly fitted or top-dose-only effect; inactive means no such curve, though single readings can be large or run the other way. Some of the results follow.

test: Primary qHTS assay for Inhibitors of ovarian cancer metastasis using an organotypic tumor microenvironment (TME) model.; further: nearly all actives have a fitted effect of over 65% in size;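 on activity change, negative = inhibition: plate controls were DMSO wells for no effect and tomatine positive control wells for full effect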; conditions: SKOV3ip1-GFP adhesion/invasion on 3D omental model, fluorescence; series mostly up to 45.8 µM; activity change, negative = inhibition: at the top concentration
Procedure, shortened: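 Adhesion/invasion was scored as fixed GFP-labeled SKOV3ip1 cell counts (488/509 nm), normalized to DMSO and tomatine controls. Cancer cells in serum-free medium, with four compound doses (0.36-46 umol/L), sat 2 hr at RT then 16 hr at 37 C on a 48 hr fibroblast/mesothelial/ECM culture.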

Compound	activity change, negative = inhibition	outcome
COc1cc2c(cc1OC)C(c1ccc(F)cc1)N(c1ccc(F)cc1)C(=O)C2 (stereo not drawn)	inactive: -3.82%	–
COc1cc(NC(=O)c2cc3nc(-c4ccccc4)cc(-c4ccccc4)n3n2)c(OC)cc1Cl	–	inactive
COc1ccc(-n2c(=O)c3sc4ccccc4c3n(Cc3ccccc3)c2=O)cc1	inactive: 7.38%	–
CCN(CC)CCNC(=O)c1ccc2c(c1)N(Cc1ccccc1)C(=O)c1ccccc1S2=O (stereo not drawn)	inactive: -6.71%	–
Cc1ccc2c(CNC3CCC(C)CC3)c(C(=O)O)n(Cc3cccc(F)c3)c2c1 (stereo not drawn)	inactive: 1.14%	–
CC(=O)c1cccc(NC(=O)Cn2c(C)c3cnn(-c4ccccc4)c(=O)c3c2C)c1	–	inactive
Cc1cccc(C(=O)N(Cc2nc(-c3ccc(Cl)cc3)no2)C(C)C)c1	inactive: -17.1%	–
Cc1cccc(C)c1NC(=O)CN(C)S(=O)(=O)c1ccc2c(c1)n(C)c(=O)c(=O)n2C	inactive: -7.59%	–
CCSc1nc(=O)c2c(n1C)NC(=O)CC2c1ccc(O)cc1OC (stereo not drawn)	inactive: -0.164%	–
CCc1ccc(OCC(=O)NCC(c2ccc(OC)cc2)N2CCOCC2)cc1 (stereo not drawn)	inactive: -11.8%	–
Cn1cc(C(=O)NCc2ccccc2)c(=O)c2cc(S(=O)(=O)N3CCCCCC3)ccc21	inactive: 2.44%	–
COc1cccc(CNC(=O)c2c3c(nc4ccccc24)C(=O)N(C2CCCCC2)C3)c1	inactive: 3.1%	–
CCc1nn(CC(=O)NC2CC2)c(=O)c2cc3ccccc3n12	inactive: 18%	–
O=C(Cn1c(=O)nc(-c2ccccc2)c2cc(Cl)ccc21)NCCCc1ccccc1	inactive: -15.9%	–
Cc1ccc(C)c(CSc2nc3ccncc3n2Cc2nc(-c3ccccc3Cl)oc2C)c1	–	inactive
Cc1ccccc1Oc1nc2c(c(=O)n(C)c(=O)n2C)n1Cc1ccc(Br)cc1	inactive: -6.98%	–
Cn1c(=O)c2sccc2n2c(CCC(=O)NCc3ccccc3)nnc12	inactive: 17.7%	–
COc1ccc(N2CCN(Cc3nc4c(c(=O)[nH]c(=O)n4C)n3Cc3ccccc3)CC2)cc1	inactive: 13.3%	–
Cc1ccc2c(c1)nc(SCC(O)c1ccc(Br)cc1)n2C (stereo not drawn)	inactive: -1.32%	–
COC(=O)c1ccc(C(=O)OC)c(NC(=O)c2c(-c3ccccc3)c(-c3ccccc3)nn(C)c2=O)c1	inactive: 25.4%	–
COc1ccc(Cl)cc1S(=O)(=O)Nc1cccc(-c2ccc(N3CCOCC3)nn2)c1	–	inactive
O=C(Nc1ccc(OC(F)(F)F)cc1)NC1COc2ccccc2C1 (stereo not drawn)	–	inactive
Cc1ccc(S(=O)Cc2nc(-c3ccc(C(=O)NC(C)c4ccccc4)cc3)oc2C)cc1 (stereo not drawn)	inactive: -3.45%	–
CC(NC(=O)CSc1n[nH]c(-c2ccccc2)n1)c1nc2ccccc2n1C (stereo not drawn)	inactive: -9.85%	–
COc1cc(OC)c(NC(=O)c2cc(S(=O)(=O)N3CCCC3)cn2C)cc1Cl	inactive: -0.642%	–

Compound	activity change, negative = inhibition	outcome
CCC1CCCCN1C(=O)Cn1c(=O)n(CC2CCC(C(=O)NC)CC2)c(=O)c2sccc21 (stereo not drawn)	inactive: 3.33%	–
CCCCc1ccc(Nc2ncnc3c2cnn3-c2ccc(C)cc2)cc1	–	inactive
COc1cc2c(=O)n(CCC(=O)NCC3CCCO3)c(=O)n(CC(=O)Nc3c(C)cccc3C)c2cc1OC (stereo not drawn)	inactive: 2.44%	–
CCCCOC(=O)c1ccc(NC(=O)/C(C#N)=C/c2ccc(-c3ccccc3)o2)cc1	inactive: 3.37%	–
COc1ccc(NC(=O)c2cc3c(=O)n(Cc4ccco4)ccc3nc2C)c(OC)c1	–	inactive
O=C(NCc1ccc(F)cc1)c1cc2c(s1)-c1ccccc1SC2	–	inactive
O=C(CCCn1c(=O)c2ccccc2n(CC(=O)Nc2ccc(F)cc2F)c1=O)NCc1ccccc1Cl	–	inactive
COc1cccc(CCNc2ncnc3c2nnn3C)c1	–	inactive
Cc1ccc(N(CC(=O)Nc2ccc(Br)c(C)c2)S(=O)(=O)c2cccs2)cc1	–	inactive
CN(C)c1ccc(CNC(=O)C(Cc2ccccc2)NS(=O)(=O)c2ccc3c(c2)oc(=O)n3C)cc1 (stereo not drawn)	inactive: 4.28%	–
Cc1ccc(-c2cc(C(=O)N3CCN(S(=O)(=O)c4ccc(Br)s4)CC3)[nH]n2)c(C)c1	inactive: -7.84%	–
CC(=O)c1ccc(NC(=O)CSc2ccc3nc(-c4ccccc4)cn3n2)cc1	inactive: 4.71%	–
CCOc1ccc(CCNC(=O)C2Cc3ccccc3N2C(=O)CC)cc1OCC (stereo not drawn)	–	inactive
COc1cc(-c2nnc(SCC(=O)NC(C)C)o2)cc(OC)c1OC	inactive: 4.13%	–
CC(C)(C)OC(=O)N1CCC(c2c(C(=O)N3CCN(c4ncccn4)CC3)cnn2-c2ccc(F)cc2F)CC1	inactive: -1.85%	–
COc1ccc(-c2cn3nc(N4CCC(C(=O)Nc5cc(Cl)ccc5OC)CC4)sc3n2)cc1	inactive: 8.93%	–
Cc1ccc(C)c(NC(=O)Cn2c(=O)n(Cc3cccs3)c(=O)c3cccnc32)c1	inactive: 6.94%	–
CCc1nnc(SCc2nc(-c3ccccc3)oc2C)c2cc3sccc3n12	inactive: -2.82%	–
CCc1ccc(CNC(=O)Cc2c(C(=O)O)c(C)cn2C)cc1	inactive: -0.0817%	–
Fc1ccc(CNc2cc(-c3ccccc3)nc3nncn23)cc1	–	inactive
CC1C(=O)OC2C(O)C34C5CC(C(C)(C)C)C36C(OC(=O)C6O)OC4(C(=O)O5)C12O (stereo not drawn)	inactive: 1.76%	–
CCOC(=O)c1c(S(=O)(=O)NCC(=O)NCc2ccc(C)cc2)c(C)n(C)c1C	–	inactive
Cc1ccccc1C(=O)Nc1ccc2nc(SCCOc3ccccc3)sc2c1	inactive: -23.3%	–
Cc1ccc(Cl)cc1NC(=O)/C(C#N)=C\c1cn(Cc2ccc(F)cc2)c2ccccc12	inactive: -6.29%	–
COc1ccc(C(=O)Nc2ccc(C(=O)OCc3cc(=O)n4nc(C(C)C)sc4n3)cc2)cc1	inactive: 0.721%	–

Compound	activity change, negative = inhibition	outcome
COc1ccc(-c2nc(SCC(=O)N3CCC(C)CC3)n[nH]2)cc1	inactive: 36.5%	–
Nc1c(C(=O)Nc2ccc(Cl)cc2F)sc2nc(-c3cccs3)ccc12	inactive: -8.34%	–
COc1ccc(OC)c(NC(=O)C(CCSC)NS(=O)(=O)c2cccs2)c1 (stereo not drawn)	inactive: 9.24%	–
CC(=O)N1CCCc2cc(S(=O)(=O)NCc3ccc(OC(C)C)cc3)ccc21	inactive: -10.6%	–
COc1ccc(-c2nn(-c3ccc(F)cc3F)c3c2cnc2ccc(F)cc23)cc1	inactive: 11.5%	–
CCc1cccc(C)c1NS(=O)(=O)c1ccc(-n2cccn2)cc1	–	inactive
CC(NC(=O)c1cc2sccc2n1Cc1ccc(F)cc1)c1ccccc1 (stereo not drawn)	inactive: 6.77%	–
COc1ccc(C(=O)Nc2ccc(-c3cc(C(F)(F)F)nn3-c3ccccc3)cc2)cc1OC	inactive: -24.9%	–
CCOc1ccc(-c2nonc2NC(=O)c2oc3cc(Br)ccc3c2C)cc1	inactive: -22.4%	–
CCN1CCN(C(=O)c2ccc3c(c2)N(Cc2cc(C)ccc2C)C(=O)c2ccccc2S3(=O)=O)CC1	inactive: -10.4%	–
CCOc1ccc(C(=O)Nc2ccc3nc(SCC(=O)N4CCOCC4)sc3c2)cc1	inactive: -12.7%	–
Cc1ccc(OCC(=O)Nc2ccc(-c3nc4ccc(C)cc4o3)cc2)cc1	inactive: -7.63%	–
Cc1cccc(C(=O)Nc2cccc(C(=O)OCc3cc(=O)n4nc(C5CC5)sc4n3)c2)c1	inactive: -2.05%	–
N#Cc1ccccc1NC(=O)C(=O)NCC(c1cccnc1)N1CCN(c2ccccc2)CC1 (stereo not drawn)	inactive: 0.71%	–
CCCOc1ccc(CNC(=O)C2CCN(c3nn4c(=O)cc(C)nc4s3)CC2)cc1	–	inactive
COc1ccc(CCC(=O)NCc2ccc3c(c2)CCN3C(=O)c2cccc(C)c2)cc1	inactive: 7.09%	–
O=C(Nc1ccc(F)cc1F)C1CCCN1S(=O)(=O)c1cccc2nsnc12 (stereo not drawn)	inactive: 6.41%	–
Cc1cc(NC(=O)CN(c2cccc(C)c2C)S(=O)(=O)c2ccccc2)ccc1Br	inactive: 12%	–
CCCSCCCNC(=O)CN1C(=O)COc2ccc(S(=O)(=O)N3CCCCCC3)cc21	–	inactive
CCOc1ccccc1Nc1ccc2cc(S(=O)(=O)N3CCCCC3)ccc2n1	–	inactive
O=C(NCCc1ccccc1)c1cnc2sc(N3CCOCC3)nn2c1=O	inactive: -7.93%	–
CCOC(=O)c1c(C)oc2nc(C)nc(NCCc3ccc(S(N)(=O)=O)cc3)c12	inactive: -11.6%	–
Cc1cccc(-c2nnc(SCCC(=O)O)o2)c1	inactive: -23.4%	–
COc1cc(CNCCSc2nnnn2C)ccc1OCc1c(F)cccc1Cl	inactive: -13.8%	–
CCOC(=O)c1[nH]c(C)c(C(=O)NCc2ccc(F)cc2)c1C	inactive: 2.35%	–

Compound	activity change, negative = inhibition	outcome
COc1ccccc1CNC(=O)C(C)n1c(=O)cc(C(F)(F)F)c2c(C)nn(C)c21 (stereo not drawn)	–	inactive
O=C(O)c1cccnc1Nc1cccc(C(F)(F)F)c1	inactive: 16.8%	–
CC(C)c1ccc(OCC(=O)Nc2cc(-c3nc4ncccc4o3)ccc2Cl)cc1	–	inactive
O=[N+]([O-])c1ccc(C(c2sc3nc(-c4ccco4)nn3c2O)N2CCC3(CC2)OCCO3)cc1 (stereo not drawn)	inactive: -1.44%	–
CCc1ccc(CNC(=O)C2CCN(c3nnc(-n4c(C)ccc4C)s3)CC2)cc1	inactive: -13.7%	–
COc1ccc(N2CCN(c3oc(/C=C/c4cccc(OC)c4)nc3C#N)CC2)cc1	inactive: 21%	–
CCOc1ccc(CCNC(=O)c2cnc3c(-c4ccccc4)c(C)nn3c2C)cc1OCC	inactive: -4.14%	–
Cc1cccc(NC(=O)CN2C(=O)CCc3ccccc32)c1C	inactive: 6.11%	–
CCCCN(CCCC)c1nc(-c2ccccc2)nc2ccccc12	inactive: -16.8%	–
Cc1oncc1C(=O)Nc1ccc(C(F)(F)F)cc1	inactive: -1.28%	–
CCCCC(=O)Nc1ccc(OCc2cc(=O)n3ccc(C)cc3n2)cc1	–	inactive
Nc1ccn(C2CO[C@H](CO)O2)c(=O)n1 (stereo partly drawn)	inactive: 12.5%	–
COc1cc(C2CC(=O)Nc3cc4c(cc32)OCCO4)cc(OC)c1O (stereo not drawn)	–	inactive
COc1ccc(NC(=O)C2CCCN2S(=O)(=O)c2ccc3c(c2)CCCC(=O)N3)cc1Cl (stereo not drawn)	–	inactive
CC1(c2ccccc2)CC(C)(C)N(C(=O)c2ccccc2Cl)c2ccccc21 (stereo not drawn)	inactive: 0.596%	–
COc1ccccc1C(=O)Nc1c(C(=O)Nc2ccc(C)cc2)oc2ccccc12	inactive: 8.04%	–
CCN(C(=O)c1cc2c(Cl)nc3ccc(C)cc3c2s1)c1cc(OC)ccc1OC	inactive: 2.74%	–
CCC(=O)Nc1ccc(C)cc1-c1nc2ccccc2n(Cc2ccccc2)c1=O	inactive: -9.3%	–
Cc1oc(-c2cccc(Cl)c2)nc1CSCC(=O)O	inactive: 3.14%	–
COc1ccccc1CNC(=O)c1cc(-c2ccccc2)n[nH]1	inactive: -8.17%	–
CCOc1ccccc1NC(=O)CN1C(=O)C(=O)c2ccccc21	inactive: 8.5%	–
CC(C)NC(=O)c1sc2ncccc2c1-n1cccc1	inactive: -1.98%	–
CCCc1cc(=O)oc2cc(C)c3c(-c4ccccc4)c(C)oc3c12	inactive: 8.68%	–
